Measured values: PubChem BioAssay AID1347073 (National Center for Advancing Translational Sciences (NCATS), 2019)
Hit rate of the full screen: of about 45,000 compounds, about 200 (0.44%) were called active. Another 7% or so got no clear call; they are omitted. Calls come from the whole dose curve; as a rule, active = well fitted activation curve with a large enough effect; inconclusive = small, poorly fitted or top-dose-only effect; inactive = no such curve, though single readings can be large or run the other way. The list shows a part of the results.

experiment: qHTS of TDP-43 Inhibitors: NCGC Sytravon Library Screen; settings: yeast TDP-43 toxicity rescue, BacTiter-Glo growth, 24 h; series mostly up to 46.1 µM; growth rescue (activation): at the top concentration; note: 0% is about no effect; nearly all actives have a fitted effect of over 55% in size
Method in brief: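 TDP-43-expressing yeast, pregrown in raffinose, seeded at OD600 0.02 in galactose medium with compound for 24 hr at 30 deg C. Growth read by BacTiter-Glo luminescence, so rescue of toxicity appears as activation.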

Row | Compound | growth rescue (activation)
1 | Cc1ccc(C(=O)N(CC#N)CC#N)cc1C | inactive: 8.82%
2 | Cc1sc2nc(COC(=O)c3ccc(N4CCCC4)c([N+](=O)[O-])c3)[nH]c(=O)c2c1C | inactive: 14%
3 | COc1ccc(CNC(=O)Cn2nc(C)n3cccc3c2=O)cc1 | inactive: 8.02%
4 | COc1ccc(S(=O)(=O)N2CCC(c3nc4ccccc4[nH]3)CC2)cc1 | inactive: 0.409%
5 | CN(c1nc2nonc2nc1NC1CC1)C1CCOC1 (centres undefined) | inactive: 8.36%
6 | COc1ccc(/C=C/c2nnc(NC(=O)CSc3ccc(Cl)cc3)s2)cc1 | inactive: 2.6%
7 | CCOc1ccc2nc(NC(=O)c3cccc(-c4cc5ccccc5oc4=O)c3)sc2c1 | inactive: 9.74%
8 | CC(C)(C)CC(=O)Nc1nnc(SCC(=O)NCc2cccs2)s1 | inactive: -2.29%
9 | O=C1N=C(N2CCOCC2)S/C1=C/c1ccc(-c2ccc(F)cc2)o1 | inactive: 12.6%
10 | CC(=O)NC1=NN(C(C)=O)C(C)(c2ccc(Br)cc2)S1 (centres undefined) | inactive: 3.55%
11 | O=c1c(-c2ccc(Br)cc2)coc2c(CN3CCOCC3)c(O)ccc12 | inactive: 11.7%
12 | Cc1ccc2[nH]c(=O)c(CC=C(Cl)Cl)c(C)c2c1 | inactive: 4.58%
13 | CCOc1ccc(C(=O)NC(=S)NCc2cccnc2)cc1[N+](=O)[O-] | inactive: 26.2%
14 | COc1ccc(N(C(=O)CNC(=O)c2ccco2)C(C(=O)NCC2CCCO2)c2ccccc2)c(OC)c1 (centres undefined) | inactive: -15.2%
15 | COc1ccc(N(CC(=O)Nc2cccnc2)S(=O)(=O)c2ccccc2)cc1Cl | inactive: 7.02%
16 | O=C(Cn1nnc(-c2ccccc2)n1)N/N=C/c1cccc([N+](=O)[O-])c1O | inactive: -1.81%
17 | O=C(COC(=O)c1ccc(S(=O)(=O)N2CCOCC2)cc1)NC1CCCCCCC1 | inactive: 20.9%
18 | CCOC(=O)COc1ccc(Br)cc1/C=C/c1[nH]c(=O)[nH]c(=O)c1[N+](=O)[O-] | inactive: -16.1%
19 | CCCNC(=O)C1(C)CCCN(C(=O)/C=C/c2ccccc2)C1 (centres undefined) | inactive: -6.06%
20 | COCCCNC(=O)c1cccc2c(=O)c(C)c(-c3ccccc3)oc12 | inactive: -0.28%
21 | CC1CCCCN1C(=O)CSc1nnc2c(n1)[nH]c1ccc(F)cc12 (centres undefined) | inactive: -1.54%
22 | O=C(Oc1ccccc1)c1ccc(NC(=O)c2ccco2)cc1 | inactive: -2.91%
23 | CCn1c(SCC(=O)NNC(=O)c2ccc(C)cc2)nnc1-c1ccco1 | inactive: -4.65%
24 | C=CCn1c(O)c(N=NC(=O)c2ccccc2NS(=O)(=O)c2cccs2)c2ccccc21 | inactive: -21%
25 | CCN(CC)S(=O)(=O)c1ccc2[nH]cc(C(=O)NCCC3=CCCCC3)c(=O)c2c1 | inactive: 18.2%
26 | COc1ccc(NS(=O)(=O)c2ccc(NC(=O)c3ccccc3Br)cc2)nn1 | inactive: 5.27%
27 | C#CCN1C(=O)C(O)(c2c(C)[nH]c3ccccc23)c2ccccc21 (centres undefined) | inactive: -0.668%

Row | Compound | growth rescue (activation)
28 | CN(C)c1ccc(-c2nnc(SCC3CCCO3)n2C)cc1 (centres undefined) | inactive: 2.67%
29 | CC1(Cc2cccc(C(N)=O)c2)C(=O)Nc2c(Cl)cccc21 (centres undefined) | inactive: -1.35%
30 | O=C(NCc1ccncc1)c1csc([C@@H]2O[C@H](CO)[C@@H](O)[C@H]2O)n1 | inactive: 10.8%
31 | C/C(=N\NC(=O)c1ccc(N2CCCC2=O)cc1)c1ccccc1 | inactive: 9.12%
32 | CC(C)(C)NCc1cc(Cl)ccc1OCc1cccs1 | inactive: -3.22%
33 | CCOCCCNC(=O)c1ccc2c(c1)ncn2-c1ccccc1OC | inactive: -0.714%
34 | CC1(C(=O)NS(=O)(=O)c2ccccc2)CCN1C(=O)c1ccc(C2CCCCC2)cc1 (centres undefined) | inactive: 0.475%
35 | COc1ccccc1NC(=O)Cc1nnc(SCC(=O)Nc2ccc(F)cc2F)n1C | inactive: 14.6%
36 | Cc1ccc(CN2CCN(Cc3ccc4cc(F)ccc4n3)CC2CCO)o1 (centres undefined) | inactive: -4.77%
37 | Cc1nc2cc(OC3(C)CCN(Cc4ccc(OC(F)(F)F)cc4)C3)ccc2s1 (centres undefined) | inactive: 10.5%
38 | Cc1nnc(SCC(=O)N2CCN(c3ccccc3F)CC2)n1C1CC1 | inactive: 5.09%
39 | O=C(Nc1ccccc1N1CCOCC1)c1ccc(N2CCOCC2)c([N+](=O)[O-])c1 | inactive: 13.1%
40 | O=C(CNC(=O)c1ccc(N2C(=O)c3ccccc3C2=O)cc1)OCC(=O)c1cccc2ccccc12 | inactive: 7.63%
41 | Cc1cc(C)c(S(C)(=O)=O)c(S(=O)c2ccc(Cl)cc2)n1 (centres undefined) | inactive: 16.8%
42 | CCCCN1CCCCC1(C)C(=O)NCc1cccc(OC)c1 (centres undefined) | inactive: -4.82%
43 | C/C(=N\NC(=O)c1ccc(N2CCCC2=O)cc1)c1ccncc1 | inactive: -16.4%
44 | CC1=NOC(=O)/C1=C/c1ccc(O)c(Br)c1 | inactive: -9.48%
45 | CS(=O)(=O)c1ccc(Cl)c(NC(=O)CN2CCN(C(=O)c3cccs3)CC2)c1 | inactive: 1.18%
46 | O=C(NC(=S)N1CCc2ccccc21)c1ccco1 | inactive: 5.75%
47 | O=C1CN(Cc2ccccc2)CC(=O)N1 | inactive: 1.17%
48 | CCOC(=O)C(=O)Nc1cccc(C(=O)OCC)c1 | inactive: 4.31%
49 | CCOC(=O)C1C(CC)NC(=S)NC1(C)O (centres undefined) | inactive: 4.73%
50 | COc1cc(/C=C2\NC(=S)N(C)C2=O)ccc1O | inactive: 13.2%
51 | O=C(NCc1cccnc1)C(=O)Nc1nc(C23CC4CC(CC(C4)C2)C3)cs1 | inactive: -12.5%
52 | C[C@]12CC[C@H](O)CC1=CCC1C2CC[C@@]2(C)C1CCC21OCCO1 (some centres undefined) | inactive: 0.614%
53 | CCCCn1c(N2CCCC2)nc2c1c(=O)[nH]c(=O)n2C | inactive: -7.11%
54 | CC(C)c1ccccc1-n1c(SCC(=O)N2CCN(c3ccccc3)CC2)nnc1-c1cccnc1 | inactive: 8.26%
